According to the supplement of paper PMC8728848:
The other results are listed elsewhere or left out.

Assays:
Experiment in all cases: glycan array binding signal (z-score within array); higher = stronger binding
Settings in all cases: glycan notation: IUPAC condensed, linker removed
[1] = target: Neu5Ac(a2-3)Gal(b1-4)[Fuc(a1-3)]GlcNAc
In short: (§1)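 From the Consortium for Functional Glycomics database, 3228 arrays were curated, keeping only those whose protein sequence was available. Binding is given as a within-array Z-score averaged across arrays sharing a protein sequence and across linkers. Negative Z-scores can be read as non-binding.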

[2] = target: Neu5Ac(a2-3)Gal(b1-4)[Fuc(a1-3)]GlcNAc(b1-3)Gal
In short: as §1

[3] = target: Neu5Ac(a2-3)Gal(b1-4)[Fuc(a1-3)]GlcNAc(b1-3)Gal(b1-4)GlcNAc
In short: as §1

[4] = target: Neu5Ac(a2-3)Gal(b1-4)[Fuc(a1-3)]GlcNAc(b1-3)Gal(b1-4)[Fuc(a1-3)]GlcNAc(b1-3)Gal(b1-4)[Fuc(a1-3)]GlcNAc
In short: as §1

[5] = target: Neu5Ac(a2-3)Gal(b1-4)[Fuc(a1-3)]GlcNAc(b1-6)[Gal(b1-3)]GalNAc
In short: as §1

[6] = target: Neu5Ac(a2-3)Gal(b1-4)[Fuc(a1-3)]GlcNAc(b1-6)[Neu5Ac(a2-3)Gal(b1-3)]GalNAc
In short: as §1

[7] = target: Neu5Ac(a2-3)Gal(b1-4)[Fuc(a1-3)]GlcNAc6S
In short: as §1

[8] = target: Neu5Ac(a2-3)Gal6S(b1-4)GlcNAc
In short: as §1

[9] = target: Neu5Ac(a2-3)Gal6S(b1-4)[Fuc(a1-3)]GlcNAc
In short: as §1

[10] = target: Neu5Ac(a2-3)GalNAc
In short: as §1

[11] = target: Neu5Ac(a2-3)GalNAc(b1-4)GlcNAc
In short: as §1

[12] = target: Neu5Ac(a2-3)[GalNAc(b1-4)]Gal(b1-4)Glc
In short: as §1

[13] = target: Neu5Ac(a2-3)[GalNAc(b1-4)]Gal(b1-4)GlcNAc
In short: as §1

[14] = target: Neu5Ac(a2-3)[Neu5Ac(a2-6)]GalNAc
In short: as §1

[15] = target: Neu5Ac(a2-6)Gal
In short: as §1

[16] = target: Neu5Ac(a2-6)Gal(b1-4)Glc
In short: as §1

[17] = target: Neu5Ac(a2-6)Gal(b1-4)GlcNAc
In short: as §1

[18] = target: Neu5Ac(a2-6)Gal(b1-4)GlcNAc(b1-2)Man(a1-3)Man(b1-4)GlcNAc(b1-4)GlcNAc
In short: as §1

[19] = target: Neu5Ac(a2-6)Gal(b1-4)GlcNAc(b1-2)Man(a1-3)[Gal(b1-4)GlcNAc(b1-2)Man(a1-6)]Man(b1-4)GlcNAc(b1-4)GlcNAc
In short: as §1

[20] = target: Neu5Ac(a2-6)Gal(b1-4)GlcNAc(b1-2)Man(a1-3)[GlcNAc(b1-2)Man(a1-6)]Man(b1-4)GlcNAc(b1-4)GlcNAc
In short: as §1

[21] = target: Neu5Ac(a2-6)Gal(b1-4)GlcNAc(b1-2)Man(a1-3)[GlcNAc(b1-2)Man(b1-4)GlcNAc(b1-2)Man(a1-6)]Man(b1-4)GlcNAc(b1-4)GlcNAc
In short: as §1

[22] = target: Neu5Ac(a2-6)Gal(b1-4)GlcNAc(b1-2)Man(a1-3)[Man(a1-6)]Man(b1-4)GlcNAc(b1-4)GlcNAc
In short: as §1

[23] = target: Neu5Ac(a2-6)Gal(b1-4)GlcNAc(b1-2)Man(a1-3)[Neu5Ac(a2-6)Gal(b1-4)GlcNAc(b1-2)Man(a1-6)]Man(b1-4)GlcNAc(b1-4)GlcNAc
In short: as §1

[24] = target: Neu5Ac(a2-6)Gal(b1-4)GlcNAc(b1-2)Man(a1-6)Man(b1-4)GlcNAc(b1-4)GlcNAc
In short: as §1

[25] = target: Neu5Ac(a2-6)Gal(b1-4)GlcNAc(b1-2)Man(a1-6)[Gal(b1-4)GlcNAc(b1-2)Man(a1-3)]Man(b1-4)GlcNAc(b1-4)GlcNAc
In short: as §1

[26] = target: Neu5Ac(a2-6)Gal(b1-4)GlcNAc(b1-2)Man(a1-6)[GlcNAc(b1-2)Man(a1-3)]Man(b1-4)GlcNAc(b1-4)GlcNAc
In short: as §1

[27] = target: Neu5Ac(a2-6)Gal(b1-4)GlcNAc(b1-2)Man(a1-6)[Man(a1-3)]Man(b1-4)GlcNAc(b1-4)GlcNAc
In short: as §1

[28] = target: Neu5Ac(a2-6)Gal(b1-4)GlcNAc(b1-3)Gal(b1-3)GlcNAc
In short: as §1

[29] = target: Neu5Ac(a2-6)Gal(b1-4)GlcNAc(b1-3)Gal(b1-4)GlcNAc
In short: as §1

[30] = target: Neu5Ac(a2-6)Gal(b1-4)GlcNAc(b1-3)Gal(b1-4)GlcNAc(b1-3)Gal(b1-4)GlcNAc
In short: as §1

[31] = target: Neu5Ac(a2-6)Gal(b1-4)GlcNAc(b1-3)Gal(b1-4)[Fuc(a1-3)]GlcNAc(b1-3)Gal(b1-4)[Fuc(a1-3)]GlcNAc
In short: as §1

[32] = target: Neu5Ac(a2-6)Gal(b1-4)GlcNAc(b1-3)GalNAc
In short: as §1

[33] = target: Neu5Ac(a2-6)Gal(b1-4)GlcNAc6S
In short: as §1

[34] = target: Neu5Ac(a2-6)GalNAc
In short: as §1

[35] = target: Neu5Ac(a2-6)GalNAc(b1-4)GlcNAc
In short: as §1

[36] = target: Neu5Ac(a2-6)GlcNAc(b1-4)GlcNAc
In short: as §1

[37] = target: Neu5Ac(a2-6)GlcNAc(b1-4)GlcNAc(b1-4)GlcNAc
In short: as §1

[38] = target: Neu5Ac(a2-8)Neu5Ac
In short: as §1

[39] = target: Neu5Ac(a2-8)Neu5Ac(a2-3)Gal(b1-4)Glc
In short: as §1

[40] = target: Neu5Ac(a2-8)Neu5Ac(a2-3)[GalNAc(b1-4)]Gal(b1-4)Glc
In short: as §1

[41] = target: Neu5Ac(a2-8)Neu5Ac(a2-8)Neu5Ac
In short: as §1

[42] = target: Neu5Ac(a2-8)Neu5Ac(a2-8)Neu5Ac(a2-3)Gal(b1-4)Glc
In short: as §1

[43] = target: Neu5Ac(a2-8)Neu5Ac(a2-8)Neu5Ac(a2-3)[GalNAc(b1-4)]Gal(b1-4)Glc
In short: as §1

[44] = target: Neu5Ac(a2-8)Neu5Ac(a2-8)Neu5Ac(a2-8)Neu5Ac(a2-3)[GalNAc(b1-4)]Gal(b1-4)Glc
In short: as §1

[45] = target: Neu5Ac(b2-6)Gal(b1-4)GlcNAc
In short: as §1

[46] = target: Neu5Ac(b2-6)GalNAc
In short: as §1

[47] = target: Neu5Ac9Ac(a2-3)Gal(b1-3)GlcNAc
In short: as §1

[48] = target: Neu5Ac9Ac(a2-3)Gal(b1-4)GlcNAc
In short: as §1

[49] = target: Neu5Ac9Ac(a2-6)Gal(b1-4)GlcNAc
In short: as §1

[50] = target: Neu5Gc(a2-3)Gal(b1-3)GlcNAc
In short: as §1

[51] = target: Neu5Gc(a2-3)Gal(b1-3)[Fuc(a1-4)]GlcNAc
In short: as §1

[52] = target: Neu5Gc(a2-3)Gal(b1-4)Glc
In short: as §1

[53] = target: Neu5Gc(a2-3)Gal(b1-4)GlcNAc
In short: as §1

[54] = target: Neu5Gc(a2-3)Gal(b1-4)[Fuc(a1-3)]GlcNAc
In short: as §1

[55] = target: Neu5Gc(a2-6)Gal(b1-4)GlcNAc
In short: as §1

[56] = target: Neu5Gc(a2-6)GalNAc
In short: as §1

[57] = target: Neu5Gc(b2-6)Gal(b1-4)GlcNAc
In short: as §1

B1: GALT1 115 D492A (Arabidopsis thaliana), Q8L7F9 (protein)
chain: DPMRGSHHHHHHGMASMTGGQQMGRDLYDDDDKSRLQKPYITAAASVVVTPNTTLPMEWLRITLPDFMKEARNTQEAISGDDIAVVSGLFVEQNVSKEEREPLLTWNRLESLVDNAQSLVNGVDAIKEAGIVWESLVSAVEAKKLVDVNENQTRKGKEELCPQFLSKMNATEADGSSLKLQIPCGLTQGSSITVIGIPDGLVGSFRIDLTGQPLPGEPDPPIIVHYNVRLLGDKSTEDPVIVQNSWTASQDWGAEERCPKFDPDMNKKVDDLDECNKMVGGEINRTSSTSLQSNTSRGVPVAREASKHEKYFPFKQGFLSVATLRVGTEGMQMTVDGKHITSFAFRDTLEPWLVSEIRITGDFRLISILASGLPTSEESEHVVDLEALKSPTLSPLRPLDLVIGVFSTANNFKRRMAVRRTWMQYDDVRSGRVAVRFFVGLHKSPLVNLELWNEARTYGDVQLMPFVDYYSLISWKTLAICIFGTEVDSAKFIMKTDDAAFVRVDEVLLSLSMTNNTRGLIYGLINSDSQPIRNPDSKWYISYEEWPEEKYPPWAHGPGYIVSRDIAESVGKLFKEGNLKMFKLEDVAMGIWIAELTKHGLEPHYENDGRIISDGCKDGYVVAHYQSPAEMTCLWRKYQETKRSLCCREW
glycan array binding signal (z-score) [1]: -0.179
glycan array binding signal (z-score) [2]: 0.004
glycan array binding signal (z-score) [3]: 0.671
glycan array binding signal (z-score) [4]: -0.391
glycan array binding signal (z-score) [5]: -0.228
glycan array binding signal (z-score) [6]: 1.16
glycan array binding signal (z-score) [7]: -0.172
glycan array binding signal (z-score) [8]: -0.05
glycan array binding signal (z-score) [9]: 1.25
glycan array binding signal (z-score) [10]: -0.101
glycan array binding signal (z-score) [11]: -0.293
glycan array binding signal (z-score) [12]: -0.307
glycan array binding signal (z-score) [13]: 0.047
glycan array binding signal (z-score) [14]: -0.42
glycan array binding signal (z-score) [15]: -0.216
glycan array binding signal (z-score) [16]: -0.002
glycan array binding signal (z-score) [17]: -0.187
glycan array binding signal (z-score) [18]: -0.076
glycan array binding signal (z-score) [19]: 0.218
glycan array binding signal (z-score) [20]: -0.257
glycan array binding signal (z-score) [21]: -0.046
glycan array binding signal (z-score) [22]: -0.462
glycan array binding signal (z-score) [23]: 0.357
glycan array binding signal (z-score) [24]: -0.138
glycan array binding signal (z-score) [25]: -0.362
glycan array binding signal (z-score) [26]: -0.198
glycan array binding signal (z-score) [27]: -0.139
glycan array binding signal (z-score) [28]: -0.175
glycan array binding signal (z-score) [29]: -0.441
glycan array binding signal (z-score) [30]: -0.243
glycan array binding signal (z-score) [31]: 0.259
glycan array binding signal (z-score) [32]: -0.313
glycan array binding signal (z-score) [33]: 0.087
glycan array binding signal (z-score) [34]: -0.312
glycan array binding signal (z-score) [35]: -0.406
glycan array binding signal (z-score) [36]: -0.235
glycan array binding signal (z-score) [37]: -0.065
glycan array binding signal (z-score) [38]: -0.221
glycan array binding signal (z-score) [39]: -0.299
glycan array binding signal (z-score) [40]: -0.078
glycan array binding signal (z-score) [41]: -0.105
glycan array binding signal (z-score) [42]: -0.151
glycan array binding signal (z-score) [43]: 0.059
glycan array binding signal (z-score) [44]: -0.089
glycan array binding signal (z-score) [45]: -0.009
glycan array binding signal (z-score) [46]: -0.173
glycan array binding signal (z-score) [47]: -0.275
glycan array binding signal (z-score) [48]: -0.039
glycan array binding signal (z-score) [49]: -0.059
glycan array binding signal (z-score) [50]: -0.1
glycan array binding signal (z-score) [51]: -0.32
glycan array binding signal (z-score) [52]: 0.317
glycan array binding signal (z-score) [53]: 0.25
glycan array binding signal (z-score) [54]: -0.3
glycan array binding signal (z-score) [55]: -0.165
glycan array binding signal (z-score) [56]: -0.444
glycan array binding signal (z-score) [57]: 0.041
